{"source": "PubChem BioAssay AID686978", "about": "(National Center for Advancing Translational Sciences (NCATS), 2013)", "note": "“And” between values parts separate entries of the source, which are not always exact repeats. Identical values can stand only once. Screen size: about 420,000 compounds; about 64,000 (15%) were called active. The inconclusive results got no clear call from the source; some entries with a clear call stand among them for comparison. Calls follow the shape of the dose curve; as a rule, active = well fitted inhibition curve with a large enough effect; inconclusive = small, poorly fitted or top-dose-only effect; inactive = flat fitted curve, though single readings scatter. Potencies beside an inconclusive call are fits to weak or partial responses and may not hold up. % is scaled to controls: 0 for no effect and ±100 for the full control effect; potency is read from the fitted curve at half-maximal effect; tags tell the direction and shape of the fitted curve."}
{"assay": "qHTS for Inhibitors of human tyrosyl-DNA phosphodiesterase 1 (TDP1): qHTS in cells in absence of CPT; also: nearly all actives have a fitted effect of over 55% in size", "settings": "DT40 Tdp1-/- hTDP1 cells, no CPT, ATP luminescence, 48 h; activity change, negative = growth inhibition: at 46.2 µM (top of the series) unless noted", "procedure,_shortened": "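Stably hTDP1-transfected Tdp1-null chicken DT40 cells were treated with library compounds minus camptothecin and grown for at least 48 hr at 37 °C, after which cellular ATP was quantified by luminescence.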"}
{"compound": "COc1ccc(-c2cc(C)no2)cc1S(=O)(=O)NCc1cccs1", "Potency": "active: 14.6 µM"}
{"compound": "CCOc1ccc(C2CC(=O)Nc3cc4c(cc32)OCO4)cc1OC", "note": "(centres undefined)", "Potency": "inconclusive: 16.4 µM [inhibitor, single point]"}
{"compound": "NC(=O)c1cccc(-c2ccnc3c2CC(C(=O)NCCc2ccccc2)O3)c1", "note": "(centres undefined)", "Potency": "active: 23.1 µM"}
{"compound": "CCCCCCC(=O)c1c(C)[nH]c(C(=O)OCC)c1C", "Potency": "inconclusive: 29.1 µM [inhibitor, single point]"}
{"compound": "O=C(CN1CCN(CC(=O)Nc2ccccc2C(F)(F)F)CC1)Nc1ccccc1F", "Potency": "inconclusive: 29.1 µM [inhibitor, single point]"}
{"compound": "Cc1ccc2nc(SCC(=O)Nc3ccc(F)cc3F)[nH]c2c1", "Potency": "inconclusive: 25.9 µM [inhibitor, single point]"}
{"compound": "CCc1ccc(NC(=O)c2cnn(-c3ccccc3)c2C)cc1", "Potency": "inconclusive: 10.3 µM [inhibitor, partial curve]"}
{"compound": "CC(=O)OC1CCC2(C)C(CCC3C2CC(=NO)C2(C)C(C(C)OC(C)=O)CCC32)C1", "note": "(centres undefined)", "Potency": "active: 18.4 µM"}
{"compound": "Cc1ccn2cc(C(=O)N3CCN(c4cnn(-c5ccccc5)c(=O)c4Cl)CC3)nc2c1", "Potency": "inconclusive: 29.1 µM [inhibitor, single point]"}
{"compound": "COc1ccc(OC)c(S(=O)(=O)Nc2c(C)n(C)n(-c3ccccc3)c2=O)c1", "activity change, negative = growth inhibition": "inactive: -6.09%"}
{"compound": "COc1ccccc1CN1CC[C@@]2(CCCN(C(=O)c3cnccn3)C2)C1", "activity change, negative = growth inhibition": "inactive: -12.8%"}
{"compound": "CC(=O)N1CCc2c(sc3c2c(=O)n(-c2ccc(C)cc2)c(=O)n3Cc2c(F)cccc2Cl)C1", "Potency": "inconclusive: 13 µM [inhibitor, partial curve, poor fit]"}
{"compound": "COc1ccc(NC(=O)c2cc(-c3cc(Cl)ccc3OC)n[nH]2)cc1OC", "Potency": "inconclusive: 29.1 µM [inhibitor, single point]"}
{"compound": "COc1ccccc1Cc1c(-c2cccc(Cl)c2)nc2ccc(Br)cn12", "Potency": "active: 20.6 µM"}
{"compound": "COc1ccc(S(=O)(=O)N2CCCC(C(=O)NCc3ccccn3)C2)cc1Cl", "note": "(centres undefined)", "activity change, negative = growth inhibition": "inactive: -14.7%"}
{"compound": "O=C(NCc1cccc(Cl)c1)c1ccc(S(=O)(=O)Nc2cccc(C(F)(F)F)c2)cc1", "Potency": "inconclusive: 29.1 µM [inhibitor, single point]"}
{"compound": "COc1ccc(C(CCN2CCCC2)c2c(O)cc(OC)cc2OC)cc1", "note": "(centres undefined)", "Potency": "inconclusive: 23.1 µM [inhibitor, single point]"}
{"compound": "CCOC(=O)COn1c(SCC(=O)OCC)nc2ccccc2c1=O", "activity change, negative = growth inhibition": "inactive: -6.59%"}
{"compound": "COc1ccccc1Cn1c(C(C)C)nc2ccccc21", "Potency": "inconclusive: 20.6 µM [inhibitor, single point]"}
{"compound": "COc1ccccc1NCCC(=O)OCC(=O)NC1CCCCCC1", "activity change, negative = growth inhibition": "inactive: -3.92%"}
{"compound": "NC(=O)[C@@H]1CCCN1Cc1nc(-c2ccc(C(F)(F)F)cc2)no1", "Potency": "inconclusive: 23.1 µM [inhibitor, single point]"}
{"compound": "COc1ccc(NC(=O)CN(C)CC(=O)Nc2cccc(F)c2)cc1Cl", "Potency": "inconclusive: 18.4 µM [inhibitor, single point]"}
{"compound": "Cc1ccc(-c2nc(CS(=O)CC(=O)N3CCN(c4cccc(Cl)c4)CC3)c(C)o2)cc1", "note": "(centres undefined)", "Potency": "inconclusive: 29.1 µM [inhibitor, single point]"}
{"compound": "O=C(c1cnn2c(C(F)F)cc(-c3ccccc3)nc12)N1CCCc2ccccc21", "Potency": "inconclusive: 29.1 µM [inhibitor, single point]"}
{"compound": "O=C(NNc1ccc(-c2csnn2)cc1)c1cc(Cl)cc(Cl)c1", "Potency": "inconclusive: 32.6 µM [inhibitor, single point]"}
{"compound": "CCCOc1cccc(C2c3c(oc4ccccc4c3=O)C(=O)N2c2nncs2)c1", "note": "(centres undefined)", "Potency": "inconclusive: 18.4 µM [inhibitor, single point]"}
{"compound": "COc1ccc(N2CCN(S(=O)(=O)c3ccc(OC)c(C(=O)N4CCCC4)c3)CC2)cc1", "Potency": "inconclusive: 25.9 µM [inhibitor, single point]"}
{"compound": "COc1cc(NC(=S)NCCCN2CCOCC2)cc(OC)c1", "activity change, negative = growth inhibition": "inactive: -19%"}
{"compound": "O=C(Nc1cccc(O)c1)c1noc2c1CCc1ccccc1-2", "Potency": "inconclusive: 11.2 µM [inhibitor, single point] and inconclusive: 29.1 µM [inhibitor, single point]"}
{"compound": "CC1CCCCC1NC(=O)C1CCN(c2c3c(nc4ncnn24)CCC3)CC1", "note": "(centres undefined)", "Potency": "active: 11.6 µM"}
{"compound": "COc1cccc(C(=O)c2cn(CC(=O)NCc3ccccc3Cl)c3nc(C)ccc3c2=O)c1", "Potency": "inconclusive: 25.9 µM [inhibitor, single point]"}
{"compound": "S=c1[nH]nc(-c2ccccn2)n1/N=C/c1ccc(-c2ccccc2Cl)o1", "Potency": "inconclusive: 16.4 µM [inhibitor, partial curve]"}
{"compound": "COc1ccccc1N1CCN(C(=O)c2oc3ccccc3c2C)CC1", "Potency": "active: 20.6 µM"}
{"compound": "O=C(CCC(=O)N1CCOc2ccc(Cl)cc21)NCCN1CCOCC1", "activity change, negative = growth inhibition": "inactive: -3.81%"}
{"compound": "O=C(CSc1nc2ccsc2c(=O)n1Cc1ccccc1Cl)NCc1ccc(F)cc1", "Potency": "active: 20.6 µM"}
{"compound": "CCCc1c(O)c2ccccc2[nH]c1=O", "activity change, negative = growth inhibition": "inactive: -5.07%"}
{"compound": "Cc1ccc(NC(=O)C(=O)NCC2CCN(C(=O)c3cccc([N+](=O)[O-])c3)CC2)cc1", "Potency": "inconclusive: 7.31 µM [inhibitor, partial curve, poor fit]"}
{"compound": "Cc1cc(C(=O)N2CCCC(C(=O)c3ccc4ccccc4c3)C2)n(C)n1", "note": "(centres undefined)", "Potency": "active: 20.6 µM"}
{"compound": "C[C@H](Cc1ccccc1)Nc1ncnc2c1ncn2[C@@H]1O[C@H](CO)[C@@H](O)[C@H]1O", "Potency": "inactive"}
{"compound": "COc1ccc(C)cc1NC(=O)C(Sc1nnc(-c2cccs2)o1)c1ccccc1", "note": "(centres undefined)", "activity change, negative = growth inhibition": "inactive: -7.45%"}
{"compound": "COn1c(-c2ccc(Cl)cc2Cl)nc2ncccc21", "Potency": "inconclusive: 18.4 µM [inhibitor, single point]"}
{"compound": "Cc1c(Cl)cccc1NC(=O)Cn1cc(C(=O)c2cccs2)c2ccccc21", "Potency": "inconclusive: 18.4 µM [inhibitor, single point]"}
{"compound": "Cc1ccc(C(=O)OC(C)C(=O)NC2CCCCC2C)cc1S(=O)(=O)N1CCCCC1", "note": "(centres undefined)", "Potency": "inconclusive: 23.1 µM [inhibitor, single point]"}
{"compound": "O=C(Cn1ncc2c(=O)oc3ccccc3c21)N(Cc1ccco1)C1CCCCC1", "Potency": "inconclusive: 14.6 µM [inhibitor, partial curve]"}
{"compound": "C=C(C)COc1ccc2c(C)c(CCC(=O)N3C[C@H]4C[C@@H](C3)c3cccc(=O)n3C4)c(=O)oc2c1", "Potency": "inconclusive: 29.1 µM [inhibitor, single point]"}
{"compound": "Cc1cccc(NC(=S)NNC(=O)c2ccccc2Br)c1", "Potency": "inconclusive: 29.1 µM [inhibitor, single point]"}
{"compound": "CC1Cc2ccccc2N1C(=O)CSc1nnc(-c2ccccc2)c(-c2ccccc2)n1", "note": "(centres undefined)", "Potency": "inconclusive: 25.9 µM [inhibitor, single point]"}
{"compound": "Cc1ccccc1S(=O)(=O)NC(=O)C1(C)CCN1C(=O)CC1CCCC1", "note": "(centres undefined)", "activity change, negative = growth inhibition": "inactive: 10.5%"}
{"compound": "COc1ccc(SCCN2CCN(CC(C)C)CCC2=O)cc1", "Potency": "inconclusive: 29.1 µM [inhibitor, single point]"}
{"compound": "Cc1ccc2nc(NC(=O)c3cccc(-c4cc5ccccc5oc4=O)c3)sc2c1", "Potency": "active: 23.1 µM"}
{"compound": "COc1cc(=O)n2c(c1C(=O)N(C)Cc1nccs1)CCN(Cc1cc(C)cc(C)c1)CC2", "Potency": "inconclusive: 20.6 µM [inhibitor, single point]"}
{"compound": "COc1ccccc1N1CCN(C(c2ccc(Cl)cc2)c2nnnn2C(C)(C)C)CC1", "note": "(centres undefined)", "Potency": "inconclusive: 25.9 µM [inhibitor, single point]"}
{"compound": "CC(C)(C)NC(=O)NC(=O)CSc1n[nH]c(-c2ccccc2Br)n1", "Potency": "inconclusive: 20.6 µM [inhibitor, single point]"}
{"compound": "COc1cccc(-n2nnnc2SCC(=O)Nc2cccc(C)n2)c1", "Potency": "inconclusive: 23.1 µM [inhibitor, single point]"}
{"compound": "Cc1cc(N(C(=O)c2ccco2)C(C(=O)NC2CCCCC2)c2ccccc2)ccc1-n1cnnn1", "note": "(centres undefined)", "Potency": "inconclusive: 14.6 µM [inhibitor, partial curve, poor fit]"}
{"compound": "O=C(Nc1cccc(F)c1)C1CCN(C(=O)Cc2ccccc2)CC1", "Potency": "inconclusive: 0.326 µM [inhibitor, full curve, poor fit]"}
{"compound": "O=C(N/N=C/c1ccco1)C1CCCC1", "activity change, negative = growth inhibition": "inactive: 13.4%"}
{"compound": "CN(C)/C=C1\\SC(=S)N(c2ccc(Br)cc2)C1=O", "Potency": "inconclusive: 18.4 µM [inhibitor, single point]"}
{"compound": "CC(C)C(C(=O)NCC1CCCO1)N(Cc1ccccc1)C(=O)CNS(=O)(=O)c1ccccc1", "note": "(centres undefined)", "activity change, negative = growth inhibition": "inactive: 1.28%"}
{"compound": "Cn1c(=O)c2ncn(C)c2n(C)c1=O", "activity change, negative = growth inhibition": "inactive: -20.5%"}
{"compound": "COC(=O)c1cccc(NC(=O)NC(=O)c2ccccc2Cl)c1", "activity change, negative = growth inhibition": "inactive: -12.9%"}
{"compound": "O=C(Nc1c2c(nn1-c1ccc(Cl)cc1)CS(=O)(=O)C2)c1cccc(F)c1", "Potency": "active: 18.4 µM"}
{"compound": "COc1ccc(S(=O)(=O)N2CCCCCC2)cc1NC(=O)Cc1cc(OC)c(OC)c(OC)c1", "Potency": "inconclusive: 8.2 µM [inhibitor, partial curve]"}
{"compound": "CCN(CCCNC(=O)c1c(C)cc(=O)oc1C)c1ccccc1", "Potency": "inconclusive: 10.3 µM [inhibitor, single point]"}
{"compound": "S=C1SCN(Cc2cccnc2)CN1Cc1cccnc1", "Potency": "active: 0.82 µM"}
{"compound": "Cc1cc(C)n(-c2nc3ccccc3c(=O)n2OCc2ccc(F)cc2)n1", "Potency": "inconclusive: 29.1 µM [inhibitor, single point]"}
{"compound": "CC(C)(C)OC(=O)NCCCC[C@H](NC(=O)c1[nH]cnc1C(=O)N[C@@H](Cc1ccccc1)C(=O)OC(C)(C)C)C(=O)OC(C)(C)C", "Potency": "active: 9.2 µM"}
{"compound": "CCc1ccc(NC(=O)CCCc2nnc3n(CC(C)C)c(=O)c4sccc4n23)cc1", "Potency": "active: 23.1 µM"}
{"compound": "COc1ccccc1C(O)c1ncc(-c2cccc(C(F)(F)F)c2)[nH]1", "note": "(centres undefined)", "Potency": "inconclusive: 29.1 µM [inhibitor, single point]"}
